{"source": "PubChem BioAssay AID588453", "about": "(National Center for Advancing Translational Sciences (NCATS), 2011)", "note": "“And” between values parts separate entries of the source, which are not always exact repeats. Identical values can stand only once. Screen size: about 390,000 compounds; about 4,000 (1%) were called active. This list was built around the results that the source calls inconclusive (neither active nor inactive); the mix of calls is not that of the screen. The call rests on the fitted dose curve; in most records, active means well fitted inhibition curve with a large enough effect; inconclusive means small, poorly fitted or top-dose-only effect; inactive means no such curve, though single readings can be large or run the other way. A potency beside an inconclusive call is a rough fit, not a confirmed value. On the % scale 0 is the no-effect control and ±100 the full control effect; potency means the concentration at half of the fitted maximal effect; tags describe the fitted curve by direction and shape."}
{"target": "Thioredoxin reductase 1, cytoplasmic (Rattus norvegicus) (UniProt O89049)", "sequence (O89049 whole entry, looked up)": "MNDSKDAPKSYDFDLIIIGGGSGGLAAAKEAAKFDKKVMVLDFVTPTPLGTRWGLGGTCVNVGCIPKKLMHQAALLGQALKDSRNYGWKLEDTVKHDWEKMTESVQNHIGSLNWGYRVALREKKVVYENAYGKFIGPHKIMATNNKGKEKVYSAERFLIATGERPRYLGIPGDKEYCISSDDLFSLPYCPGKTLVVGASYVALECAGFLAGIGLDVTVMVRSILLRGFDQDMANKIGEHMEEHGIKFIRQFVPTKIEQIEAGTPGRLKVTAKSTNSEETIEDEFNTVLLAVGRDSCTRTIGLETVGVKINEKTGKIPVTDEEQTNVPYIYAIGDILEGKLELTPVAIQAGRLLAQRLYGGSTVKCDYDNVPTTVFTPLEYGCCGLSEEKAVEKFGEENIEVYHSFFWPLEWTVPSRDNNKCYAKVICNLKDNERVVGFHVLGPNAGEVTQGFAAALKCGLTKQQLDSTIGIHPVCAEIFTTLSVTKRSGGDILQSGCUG", "assay": "qHTS Assay for Inhibitors of Mammalian Selenoprotein Thioredoxin Reductase 1 (TrxR1): qHTS; further: nearly all actives have a fitted effect of over 65% in size", "conditions": "recombinant rTrxR1, NADPH fluorescence consumption, selenite substrate; series mostly up to 114 µM; activity change, negative = inhibition: at the top concentration", "summary_of_the_method": "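Rat TrxR1 (90 nM in the dispensed reagent) was pre-reduced with 400 uM NADPH for 5 min at room temperature, then incubated with compound for 15 min. After 400 uM selenite was added, NADPH fluorescence (Ex 340/Em 450 nm) was followed for 8 min.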"}
{"smiles": "CC1(C)CC(=O)C(C2C3=C(CC(C)(C)CC3=O)Oc3ccccc32)=C(O)C1", "note": "(stereo not given)", "Potency": "inconclusive: 79.4 µM [inhibitor, single point]"}
{"smiles": "COc1ccc(/C=N/NC(=S)SC)cc1OC", "Potency": "inconclusive: 56.2 µM [inhibitor, partial curve]"}
{"smiles": "c1ccc(-c2nc3c([nH]2)CCc2nonc2-3)cc1", "activity change, negative = inhibition": "inactive: -39.2%"}
{"smiles": "Cc1cccc(OCC(=O)Nc2c(C)ccc3nsnc23)c1C", "activity change, negative = inhibition": "inactive: 7.05%"}
{"smiles": "CNc1cc(C(=O)O)nc2ccccc12", "Potency": "inconclusive: 39.8 µM [inhibitor, partial curve]"}
{"smiles": "COCCN(CCOC)C(=O)c1cc2c(=O)n3ccccc3nc2s1", "Potency": "inconclusive: 79.4 µM [inhibitor, single point]"}
{"smiles": "Cc1ccc(C)c(NC(=O)CCN2C(=O)c3ccccc3Sc3ncccc32)c1", "Potency": "active: 50.1 µM"}
{"smiles": "O=S(=O)(NC(=S)NC1CCCCC1)c1cccs1", "Potency": "inconclusive: 11.2 µM [inhibitor, partial curve, poor fit]"}
{"smiles": "C1=C2C[N+]3(CCCC3)CC2Cc2ccc3ccccc3c21", "note": "(stereo not given)", "activity change, negative = inhibition": "inactive: 0.0855%"}
{"smiles": "Cc1nn2c(c1-c1ccccc1)N=C(c1ccco1)CC2c1ccccc1", "note": "(stereo not given)", "Potency": "inconclusive: 20 µM [inhibitor, full curve]"}
{"smiles": "CCOc1ccc(NS(=O)(=O)c2ccc(NC(=S)NC(C)=O)cc2)cc1", "Potency": "inconclusive: 56.2 µM [inhibitor, partial curve, poor fit]"}
{"smiles": "CCOc1ccccc1/C=N/NC(=O)c1nnn(-c2nonc2N)c1CN1CCCCCC1", "activity change, negative = inhibition": "inactive: 16.6%"}
{"smiles": "Nc1ccccc1C(=O)/C=C/c1ccc2c(c1)OCO2", "activity change, negative = inhibition": "inactive: 17.2%"}
{"smiles": "CCOC(=O)c1c(NC(=O)CSc2cn(CCNC(=O)c3ccccc3F)c3ccccc23)sc2c1CCC2", "activity change, negative = inhibition": "inactive: 12.3%"}
{"smiles": "CC(=O)Nc1cn(-c2ccccc2)nc1-c1ccccc1", "activity change, negative = inhibition": "inactive: 11.1%"}
{"smiles": "CN(C)CCN(Cc1ccccc1)S(=O)(=O)c1ccc(-c2ccc(=O)[nH]n2)s1", "Potency": "active: 39.8 µM"}
{"smiles": "COc1ccc(/C=C/C(=O)c2ccc(NC(=O)c3cccs3)cc2)cc1OC", "activity change, negative = inhibition": "inactive: -16.1%"}
{"smiles": "COCCn1c(-c2ccccc2F)n[nH]c1=S", "Potency": "inconclusive: 0.708 µM [inhibitor, full curve]"}
{"smiles": "Cc1cccn2cc(-c3ccc(F)cc3)nc12", "activity change, negative = inhibition": "inactive: -31.1%"}
{"smiles": "COc1ccc(NC(=O)CC2C(=O)N(c3ccc(Cl)cc3)C(=S)N2CCc2ccccn2)cc1", "note": "(stereo not given)", "activity change, negative = inhibition": "inactive: -14.2%"}
{"smiles": "CC(C)(C)C1CCC(C(=O)NCC(c2cccs2)N2CCOCC2)CC1", "note": "(stereo not given)", "Potency": "inconclusive: 89.1 µM [inhibitor, single point]"}
{"smiles": "O=C(COC(=O)c1cc(-c2cccc3ccccc23)nc2ccccc12)NC1CCS(=O)(=O)C1", "note": "(stereo not given)", "Potency": "inconclusive: 70.8 µM [inhibitor, single point]"}
{"smiles": "Cc1cccc(C(=O)N=c2c(C#N)cc3c(=O)n4cccc(C)c4nc3n2Cc2ccco2)c1", "Potency": "active: 6.31 µM"}
{"smiles": "CC(=O)Nc1ccc(S(=O)(=O)c2cc(O)ccc2O)cc1", "Potency": "active: 17.8 µM"}
{"smiles": "COc1cc(-c2noc(CN3CCN(c4ccccc4)CC3)n2)cc(OC)c1OC", "Potency": "inconclusive: 50.1 µM [inhibitor, partial curve]"}
{"smiles": "O=C(COC(=O)C1CCN(S(=O)(=O)c2c(Cl)cccc2Cl)CC1)NCc1ccco1", "Potency": "inconclusive: 39.8 µM [inhibitor, partial curve, poor fit]"}
{"smiles": "CC(C)CCNC(=O)CCCN1C(=O)c2ccccc2Sc2ncccc21", "Potency": "inconclusive: 79.4 µM [inhibitor, single point]"}
{"smiles": "Cc1cccc(NC(=O)C(=O)NCC(c2ccc3c(c2)OCO3)N2CCOCC2)c1C", "note": "(stereo not given)", "activity change, negative = inhibition": "inactive: 1.72% [at 57.1 µM]"}
{"smiles": "COc1ccc(Cc2nc3ccc(C(=O)N4C[C@@H](C)O[C@@H](C)C4)cc3o2)cc1OC", "activity change, negative = inhibition": "inactive: 3.35%"}
{"smiles": "COc1cc(C2NC(=O)NC(O)(C(F)(F)F)C2C(=O)c2ccc(Cl)cc2)ccc1O", "note": "(stereo not given)", "Potency": "inconclusive: 79.4 µM [inhibitor, single point]"}
{"smiles": "CCc1ccc(NC(=O)CN2CCN(Cc3ccccc3)S2(=O)=O)cc1", "activity change, negative = inhibition": "inactive: -0.614% [at 57.1 µM]"}
{"smiles": "Cc1ccccc1-n1c(SCC(=O)Nc2ccc(Cl)cc2F)nnc1-c1cc2occc2n1C", "activity change, negative = inhibition": "inactive: 12.7%"}
{"smiles": "O=C(CCSc1nc(-c2ccco2)cc(C(F)(F)F)n1)Nc1cccc(O)c1", "Potency": "inconclusive: 50.1 µM [inhibitor, partial curve, poor fit]"}
{"smiles": "O=C(N/N=C/c1c(Cl)nc2ccccn2c1=O)c1cccnc1", "Potency": "inconclusive: 79.4 µM [inhibitor, partial curve, poor fit]"}
{"smiles": "CCOC(=O)N1CCN(C(=O)c2ccc(-n3c(C)ccc3C)cc2)CC1", "activity change, negative = inhibition": "inactive: -24.7%"}
{"smiles": "Cc1cccc(C(=O)Nc2sc3c(c2C(=O)NCc2ccco2)CCCC3)c1", "Potency": "inconclusive: 79.4 µM [inhibitor, single point]"}
{"smiles": "O=C(NC1C/C=C\\C(c2ccccc2)N(c2ccccc2)C(=O)C1)OCC1c2ccccc2-c2ccccc21", "note": "(stereo not given)", "Potency": "inconclusive: 56.2 µM [inhibitor, partial curve]"}
{"smiles": "COc1ccc2cc3cc(C(=O)N4CCN(C5CCCCC5)CC4)oc3nc2c1", "Potency": "inconclusive: 79.4 µM [inhibitor, partial curve]"}
{"smiles": "Cc1ccccc1N=Cc1cc2c(cc1O)OC(N)=C(C#N)C2c1ccccc1", "note": "(stereo not given)", "Potency": "inconclusive: 79.4 µM [inhibitor, partial curve]"}
{"smiles": "CCN(CC)c1ccc(/C=N/NC(=O)CNC(=O)/C=C/c2ccco2)cc1", "Potency": "inconclusive: 79.4 µM [inhibitor, partial curve]"}
{"smiles": "O=C(NCCc1ccc(Cl)cc1)C1CCCN(S(=O)(=O)N2CCCCCC2)C1", "note": "(stereo not given)", "Potency": "inconclusive: 100 µM [inhibitor, single point]"}
{"smiles": "CN(C)c1ccc(/C=C/c2nc3ccccc3o2)cc1", "activity change, negative = inhibition": "inactive: -13%"}
{"smiles": "CCC1Sc2ccc(S(=O)(=O)CCC(=O)NCc3ccco3)cc2NC1=O", "note": "(stereo not given)", "Potency": "inconclusive: 56.2 µM [inhibitor, partial curve, poor fit]"}
{"smiles": "COc1ccc(Cl)cc1NC(=S)NCc1ccco1", "Potency": "inconclusive: 10 µM [inhibitor, partial curve]"}
{"smiles": "CN(C)S(=O)(=O)c1ccc(NC(=S)NC(=O)c2cccs2)cc1", "Potency": "inconclusive: 28.2 µM [inhibitor, single point]"}
{"smiles": "Cc1ccc(Nc2c(-c3ccc(C)o3)nc3cnccn23)cc1", "Potency": "active: 3.16 µM and active: 3.98 µM"}
{"smiles": "Cc1cc(C)cc(COc2ccc3c(C)c(CC(=O)O)c(=O)oc3c2C)c1", "Potency": "inconclusive: 89.1 µM [inhibitor, single point]"}
{"smiles": "COc1ccc(C(=O)N/N=C(\\C)c2ccc3c(c2)C2C=CCC2C(c2ccccc2)N3)cc1", "note": "(stereo not given)", "Potency": "inconclusive: 35.5 µM [inhibitor, single point]"}
{"smiles": "Brc1ccc(C2Nc3cccc4cccc(c34)N2)cc1", "Potency": "inconclusive: 56.2 µM [inhibitor, partial curve, poor fit]"}
{"smiles": "CCOC(=O)Cc1c(C)nc2cc(-c3ccc(C)cc3)[nH]n2c1=O", "activity change, negative = inhibition": "inactive: 29.6% [at 57.1 µM]"}
{"smiles": "CNC[C@H]1Oc2ccc(NC(=O)Nc3ccc4c(c3)OCO4)cc2C(=O)N([C@H](C)CO)C[C@@H]1C", "Potency": "inconclusive: 39.8 µM [inhibitor, single point]"}
{"smiles": "CCOC(=O)N1CC=C2C(C#N)=C(N)C(C#N)(C#N)[C@H](c3ccsc3)[C@H]2C1", "Potency": "inconclusive: 15.8 µM [inhibitor, full curve]"}
{"smiles": "C[C@H](CO)N1C[C@H](C)[C@@H](CN(C)Cc2ccncc2)Oc2c(cccc2N(C)C)C1=O", "Potency": "inconclusive: 79.4 µM [inhibitor, partial curve, poor fit]"}
{"smiles": "Fc1ccc(-c2ccc3c(c2)C2CC3CCN2)cc1", "note": "(stereo not given)", "Potency": "inconclusive: 56.2 µM [inhibitor, partial curve, poor fit]"}
{"smiles": "CCC(=O)NC(=S)NNC(=O)c1ccccc1[N+](=O)[O-]", "activity change, negative = inhibition": "inactive: 10.7%"}
{"smiles": "C/C(=C\\C(=O)c1ccc(Cl)cc1Cl)N(C)C", "Potency": "inconclusive: 79.4 µM [inhibitor, single point]"}
{"smiles": "Cc1cc(N=NC(=O)c2ccccc2)ccc1O", "Potency": "inconclusive: 20 µM [inhibitor, full curve]"}
{"smiles": "Cc1ccc(Nc2nc(Nc3ccc(C)cc3)nc(SC3=NCCS3)n2)cc1", "activity change, negative = inhibition": "inactive: 9.83% [at 57.1 µM]"}
{"smiles": "O=C(Cc1ccccc1)Nc1cccc(N2C(=O)C=CC2=O)c1", "Potency": "active: 3.55 µM"}
{"smiles": "Cc1noc(C)c1CSc1nnc(-c2ccccc2)n1Cc1ccco1", "Potency": "inconclusive: 22.4 µM [inhibitor, single point]"}
{"smiles": "COC(=O)C(NNc1ccccc1)(NC(=O)c1cccc(F)c1)C(F)(F)F", "note": "(stereo not given)", "Potency": "inconclusive: 20 µM [inhibitor, partial curve, poor fit]"}
{"smiles": "Cc1cc(C([O-])=C(C(=S)Nc2ccccc2)[n+]2ccccc2)c(C)n1-c1ccccc1", "Potency": "inconclusive: 56.2 µM [inhibitor, partial curve, poor fit]"}
{"smiles": "CCCc1cc(=O)oc2cc(OC(=O)CN3C(=O)NC4(CCCC4)C3=O)ccc12", "Potency": "active: 79.4 µM"}
{"smiles": "COc1ccc(C(=O)Oc2cc(-c3ccc(OC)c(OC)c3)cc(=O)c3c(C)oc(C)c23)cc1", "Potency": "inconclusive: 70.8 µM [inhibitor, partial curve]"}
{"smiles": "CC(C)(C)N(Cc1ccc2c(c1)OCO2)C(=O)/C=C\\S(=O)c1ccccc1", "note": "(stereo not given)", "Potency": "active: 79.4 µM"}
{"smiles": "Cc1ccc(OCC(=O)Nc2ccc(O)c(C(=O)O)c2)cc1C", "activity change, negative = inhibition": "inactive: 34.4%"}
{"smiles": "COc1ccc(-c2nc(C#N)c(NCCc3ccccc3)o2)cc1OC", "activity change, negative = inhibition": "inactive: 10% [at 57.1 µM]"}
{"smiles": "O=C(c1cccc(C(=O)N2CCN(c3ccccc3)CC2)c1)N1CCN(c2ccccc2)CC1", "Potency": "inconclusive: 39.8 µM [inhibitor, single point]"}
{"smiles": "O=C(NC1CCCCC1)C(c1ccncc1)N(CC1CCCO1)C(=O)C(F)(F)F", "note": "(stereo not given)", "Potency": "inconclusive: 31.6 µM [inhibitor, partial curve, poor fit]"}
{"smiles": "O/C(=C\\Sc1nnc(Cc2ccccc2)o1)c1ccc(Br)cc1", "Potency": "inconclusive: 0.562 µM [inhibitor, partial curve, poor fit]"}
